Results: patent US12551573B2, “Compositions and methods for the targeting of PCSK9” (Scribe Therapeutics Inc., priority 2022, dated 2026)

System: HBEGF locus
Type: cell-based, human
Conditions: high-throughput screen of dXR repression of the HBEGF gene
[1] = abundance of each domain in the library before vs after diphtheria toxin selection, listed domains met p-value <0.01 and log2(fold change) >2
[2] = change in abundance of each domain in the library before and after diphtheria toxin selection

B1: DOMAIN_24788 (protein, listed as Vombatus ursinus)
chain: FQESVTFKDVAVEFTGEEWRQLDRAQRSLFRDVMLENYRNLVSLGLTVAKPNLIFLLERGEAPWTLQRQIPGGTSSDCPCW
[1]
  Log2 (fold change): 2.7694

B2: DOMAIN_25063 (protein, listed as Phascolarctos cinereus)
chain: SHESVTFKDVAVDFTWEEWGYLDTSQKELYWEVMLENYRNLVSLGLADSNVDMISQLESGEAHGIPVDSVLRSCWPDGDTR
[1]
  Log2 (fold change): 2.9436

B3: DOMAIN_24677 (protein, listed as Lynx pardinus)
chain: SKVPVTFGDLAIYFSQEEWEWLSPIQKDLYEDVMLENYQNLVSLGLSFRRPNVITLLEKGRAPWMVEPVRKRRVLDSRSKY
[1]
  Log2 (fold change): 2.3115

B4: DOMAIN_24600 (protein, listed as Ursus americanus)
chain: QCGLLTFGDVAIEFSQEEWRCLSHTQRELYRDVMLENYGHLLFLGLIVSKPDLVSLLEQSKEPWDVRRKKTQRPSVLMGHV
[1]
  Log2 (fold change): 3.156

B5: DOMAIN_24786 (protein, listed as Vombatus ursinus)
chain: FQESVTFKDVAVDFTQEEWAQLDPPQRNLYRDVMLENYEHFVFLGLPVAKPEVISQLERGEVPLFPEQPEFSTSICPDSLN
[1]
  Log2 (fold change): 2.9237

B6: DOMAIN_24939 (protein, listed as Phascolarctos cinereus)
chain: PQEQVTFSDVAVDFTVEEWGRLAPAQKELYRSVMLENYRNLVCLGLAASSPDVIGQLERGEGPWRVEGKVRKGLCADQKTS
[1]
  Log2 (fold change): 3.3066

B7: DOMAIN_25060 (protein, listed as Ailuropoda melanoleuca)
chain: PQVLVSFEDVAVFLSREEWGCLGPAQRGLYRDVMLETYRNLISLGFQDSKPDVISKLEKGEEPWAPYSPRIEEGWIWSHGS
[1]
  Log2 (fold change): 3.6002

B8: DOMAIN_24317 (protein, listed as Myotis brandtii)
chain: LDAPVTFEDVAVYFSENEWTCLTCPQRALYRDVMLENYGAVASLAFLFPKPALISRLERGEAPWCSAPQGALDGEGWKGVS
[1]
  Log2 (fold change): 3.9767

B9: DOMAIN_24725 (protein)
chain: RPGAVSFADVAVYFSPEEWGCLRPAQRALYRNVMRETYGHLGALGFAGPKPALISWLERKKEVWSPEAEDPEAGARHPGSG
modifications: Ursus arctos
[1]
  Log2 (fold change): 3.4496

B10: DOMAIN_24975 (protein)
chain: RPRAVKFGDVALYFSREEWGCLRPAQRALYRDVMQETYGHLGALGCAGPKPALISWLERNTDDWEPAALDPQQCPKGVAVQ
modifications: Muntiacus muntjak
[1]
  Log2 (fold change): 3.2737

B11: DOMAIN_24463 (protein, listed as Balaenoptera acutorostrata)
chain: LQEAVTFEDVAVNFSNEEWQCLTHAQRHLYKDVMLENYGNVVSLGFPFPKPPLISHLEQEAELCAQDRQDREFLSCSYPVS
[1]
  Log2 (fold change): 2.5362

B12: DOMAIN_25052 (protein)
chain: LFESVSFKDVTIDFSWEEWQQLDFAQKSLYRDVMLENYFNLISVGCQVPKPEVIFNLEQVENPCMLHRKISRQSCLDGDIG
modifications: Pteropus alecto
[1]
  Log2 (fold change): 2.3634

B13: DOMAIN_25016 (protein, listed as Oryctolagus cuniculus)
chain: SLGPVSFKDVAVGFTQEEWRQLEPAQRRTYREVMLENYSHLVAVGCHFIKPDVITKLERGEEPWIEGGFLPQGCAGDEVWQ
[1]
  Log2 (fold change): 2.9822

B14: DOMAIN_24993 (protein, listed as Oryctolagus cuniculus)
chain: KPAAVSFADVAVYFSPEEWGCLRPAQRALYREVMRETYGLLGALGGGGTKPALICWVERDAELWGPDAQDPAAAAARGYGT
[1]
  Log2 (fold change): 3.3817

B15: DOMAIN_25091 (protein, listed as Phascolarctos cinereus)
chain: VQESVTFRDLAVDFDMEEWGYLCPSQKELYREVMLENYRHLVSLGLLEAKPDLISRLEQEEPQVWEVQEGASGSVCACTGG
[1]
  Log2 (fold change): 2.9006

B16: DOMAIN_24230 (protein, listed as Muntiacus reevesi)
chain: SQSPLTFGDVAVEFSGDEWAWLDSAQRSLHRSVMLENYRNLASLGLCMSKPEMISSLEQSKEPWAVKAKSTRGRCPGLEAI
[1]
  Log2 (fold change): 3.1832

B17: DOMAIN_24393 (protein, listed as Propithecus coquereli)
chain: SLGSELFRDVAIVFSQEEWQWLAPAQRDLYRDVMLETYSNLVSLGLAISKPDVISFLEQGKEPWMVERVATGDLCPVLESG
[1]
  Log2 (fold change): 3.8008

B18: DOMAIN_24546 (protein, listed as Ursus americanus)
chain: VLGLVTFGDVAIDFSREEWEWLNSAQRTLHRDVMLENYRNLVSLGLCVSKPDMISSLEQRKEPWMVKRKLTRGRCPDLKTM
[1]
  Log2 (fold change): 3.4262

B19: DOMAIN_24571 (protein, listed as Balaenoptera acutorostrata)
chain: PLESVTFEDVAINFTQEEWALLDTSQRNLFRNVMLENISHLVSIGYQISKSDVISQLKQGKELRKSTVSKQCGKSLSQGSF
[1]
  Log2 (fold change): 2.6912

B20: DOMAIN_24867 (protein)
chain: TQEHVTFRDVAVFFSQDEWLHLDSAQRALYREVMLENYSSLVSLGIPFSMPKLIHQLQQGEDPCMVEREVSADTCLGFKTW
modifications: Nomascus leucogenys
[1]
  Log2 (fold change): 3.469

B21: DOMAIN_24496 (protein, listed as Ursus americanus)
chain: RPGAVSFADVAVYFSPEEWGCLRPAQRALYREVMRETYGHLGALGFPGPKPALISWMEQESEAWSPDAQDPEEGESLGGAL
[1]
  Log2 (fold change): 3.6403

B22: DOMAIN_24518 (protein, listed as Balaenoptera acutorostrata)
chain: KPAAVSFADVAVYFSVEEWGCLRPAQRALYRDVMRETYGHLGALGFPGPKPALISWMEQESEAWSPAAQDPEEGESLGGAL
[1]
  Log2 (fold change): 3.4135

B23: DOMAIN_24719 (protein, listed as Muntiacus reevesi)
chain: CNMSLSFSDVAVDLSQEEWECMSPAQRALYRDVMLENYSNLVSLGCSTPKPDMITLLEQEKEPWMILREGTGSWFTDLESE
[1]
  Log2 (fold change): 2.7499

B24: DOMAIN_24256 (protein)
chain: VTFEDVAVYFSWEEWGLLDEAQRCLYQDVMLENLALINSLGLRHGAEDEDAPEHRVSVQAASQVGTRKAVVSPQKAHPREV
modifications: Ursus arctos
[1]
  Log2 (fold change): 2.7933

B25: DOMAIN_24306 (protein, listed as Propithecus coquereli)
chain: PKAPVTFGDVAIYFSKEEWECLSPNQKDLYEDVMMENYQNLASIGFSCRRPNVITLLEKGEAPWMAEPLRRRQGPDSGSKK
[1]
  Log2 (fold change): 3.2084

B26: DOMAIN_784 (protein, listed as Pan paniscus)
chain: MELLTFKDVAIEFSPEEWKCLDTSQQNLYRDVMLENYRNLVSLGVTISNPDLVTCLEQRKEPYNLKIHETAARPPGHYRKR
[2]
  Log2 (fold change): 2.4886

B27: DOMAIN_24282 (protein, listed as Muntiacus reevesi)
chain: QAEVTFEDVAVLLSQEEWGLLGPSQKGLYREVMLETYRNLLSLGVGLADPKPEVIVQLERGDELWVLDMHGAEQPSVDGSA
[1]
  Log2 (fold change): 2.694

B28: DOMAIN_24379 (protein, listed as Macaca nemestrina)
chain: GRVTFRDVAVEFSLAEWKCLNPVQRALYREVMLENYRNLEFVDSSLKSMMEFSSHEHSNTGEGFHTGTLERHKSYHIGDFW
[1]
  Log2 (fold change): 2.4643

B29: DOMAIN_802 (protein, listed as Pan paniscus)
chain: MAAGQREARPQVSLTFEDVAVLFTRDEWRKLAPSQRNLYRDVMLENYRNLVSLGLPFTKPKVISLLQQGEDPWEVEKDGSG
[2]
  Log2 (fold change): 2.6563

B30: DOMAIN_761 (protein, listed as Pan paniscus)
chain: MMTAVSLTTRPQESVAFEDVAVYFTTKEWAIMVPAERALYRDVMLENYEAVAFVVPPTSKPALVSHLEQGKESCFTQPQGV
[2]
  Log2 (fold change): 3.181

B31: DOMAIN_24570 (protein, listed as Saimiri boliviensis)
chain: PQKSVTFEDVAVYFTQAEWDGLSPAQRTLYRDVMLENYGNVASLGFPLLKPAVISQLEGGGELGGPSPLAAGTGLRGLWTV
[1]
  Log2 (fold change): 3.6773

B32: DOMAIN_24771 (protein, listed as Myotis brandtii)
chain: FQEVVTFEDVAVHFTQAEWAGLSSAQRALHRSVMLENYGNLTSLGYTVPNSALISLLEGRDLPWGLEAQNDPPAERSTHVC
[1]
  Log2 (fold change): 3.3701

B33: DOMAIN_24653 (protein, listed as Cervus elaphus)
chain: TPQTLKPRAPGACSRARSPGPGIQDSDAVGSVTFEDVAVYFSWEEWALLDEAQRCLYHDVMLENFALTSSLGGPTGGGRVV
[1]
  Log2 (fold change): 2.9883

B34: DOMAIN_24947 (protein, listed as Ursus maritimus)
chain: ASCGLLTFRDVAIEFSQEEWRCLSHTQRELYRDVMLENYGHLLFLGLIVSKPDLVSFLELRKDPWDVKRRKTAGFDPGRWQ
[1]
  Log2 (fold change): 2.9491

B35: DOMAIN_24614 (protein, listed as Cervus elaphus)
chain: PQDLMTFEDVAVEFTWWEWGQLDPAQKDLYREVMLENFKNLASLGFPVSKPYMICQLEEGEEPCILEREISTGVHSDWERR
[1]
  Log2 (fold change): 2.6295

B36: DOMAIN_24212 (protein)
chain: KQVSISFEDVTVDFSREEWQHLDPAQRCLYRDVTLENYSHLLSVGYQVPKPEIIFQLEQGEGPWMLERETPHQSCSDEDIG
modifications: Pteropus alecto
[1]
  Log2 (fold change): 2.498

B37: DOMAIN_811 (protein, listed as Pan paniscus)
chain: GSQGNLPQAEITLMNQAQESVTFEDVAVNFTNREWQCLTYAQRHLYKDVMLENYGNMVSLGFPFPKPPLISHLEREVDPCV
[2]
  Log2 (fold change): 2.4706

Like-named read-outs stand apart in the source and are kept apart here.
